Laboratory results reported in PMC9911399, “Two distinct binding modes provide the RNA-binding protein RbFox with extraordinary sequence specificity”.
Positions count from the first letter of the chain named. Some of the results follow.

B1: AUUACAA (DNA:RNA)
RNA: GGGAGACCGGAAUUCAGAUUGUCCAUUACAAUUAAAUCCCGUCGUAGCCACCA
DNA 1: CAATCTGAATTCCGGTCTCCC
DNA 2: TGGTGGCTACGACGGGATT
B2: GGGUUUG (DNA:RNA)
RNA: GGGAGACCGGAAUUCAGAUUGUCCGGGUUUGUUAAAUCCCGUCGUAGCCACCA
DNA 1: CAATCTGAATTCCGGTCTCCC
DNA 2: TGGTGGCTACGACGGGATT
B3: AGGAUAU (DNA:RNA)
RNA: B1 RNA with U26G, U27G, C29U, A31U
DNA 1: CAATCTGAATTCCGGTCTCCC
DNA 2: TGGTGGCTACGACGGGATT
B4: AUCUUUC (DNA:RNA)
RNA: B2 RNA with G25A, G26U, G27C, G31C
DNA 1: CAATCTGAATTCCGGTCTCCC
DNA 2: TGGTGGCTACGACGGGATT
B5: GUAGUAU (DNA:RNA)
RNA: B1 RNA with A25G, U27A, A28G, C29U, A31U
DNA 1: CAATCTGAATTCCGGTCTCCC
DNA 2: TGGTGGCTACGACGGGATT
B6: CGCUCUA (DNA:RNA)
RNA: B2 RNA with G25C, G27C, U29C, G31A
DNA 1: CAATCTGAATTCCGGTCTCCC
DNA 2: TGGTGGCTACGACGGGATT
B7: UCAAUUA (DNA:RNA)
RNA: B1 RNA with A25U, U26C, U27A, C29U, A30U
DNA 1: CAATCTGAATTCCGGTCTCCC
DNA 2: TGGTGGCTACGACGGGATT
B8: AGGCCCC (DNA:RNA)
RNA: B1 RNA with U26G, U27G, A28C, A30C, A31C
DNA 1: CAATCTGAATTCCGGTCTCCC
DNA 2: TGGTGGCTACGACGGGATT
B9: GAUGGAU (DNA:RNA)
RNA: B1 RNA with A25G, U26A, A28G, C29G, A31U
DNA 1: CAATCTGAATTCCGGTCTCCC
DNA 2: TGGTGGCTACGACGGGATT
B10: AGCCCGC (DNA:RNA)
RNA: B1 RNA with U26G, U27C, A28C, A30G, A31C
DNA 1: CAATCTGAATTCCGGTCTCCC
DNA 2: TGGTGGCTACGACGGGATT
B11: CGUCUCG (DNA:RNA)
RNA: B2 RNA with G25C, G27U, U28C, U30C
DNA 1: CAATCTGAATTCCGGTCTCCC
DNA 2: TGGTGGCTACGACGGGATT
B12: CAUGUGC (DNA:RNA)
RNA: B1 RNA with A25C, U26A, A28G, C29U, A30G, A31C
DNA 1: CAATCTGAATTCCGGTCTCCC
DNA 2: TGGTGGCTACGACGGGATT
B13: CAAGUUU (DNA:RNA)
RNA: B2 RNA with G25C, G26A, G27A, U28G, G31U
DNA 1: CAATCTGAATTCCGGTCTCCC
DNA 2: TGGTGGCTACGACGGGATT
B14: GACAGCA (DNA:RNA)
RNA: B1 RNA with A25G, U26A, U27C, C29G, A30C
DNA 1: CAATCTGAATTCCGGTCTCCC
DNA 2: TGGTGGCTACGACGGGATT
B15: GUCUGAC (DNA:RNA)
RNA: B1 RNA with A25G, U27C, A28U, C29G, A31C
DNA 1: CAATCTGAATTCCGGTCTCCC
DNA 2: TGGTGGCTACGACGGGATT
B16: CACUAGC (DNA:RNA)
RNA: B2 RNA with G25C, G26A, G27C, U29A, U30G, G31C
DNA 1: CAATCTGAATTCCGGTCTCCC
DNA 2: TGGTGGCTACGACGGGATT
B17: UCAGAAC (DNA:RNA)
RNA: B1 RNA with A25U, U26C, U27A, A28G, C29A, A31C
DNA 1: CAATCTGAATTCCGGTCTCCC
DNA 2: TGGTGGCTACGACGGGATT
B18: GAGUCCU (DNA:RNA)
RNA: B2 RNA with G26A, U29C, U30C, G31U
DNA 1: CAATCTGAATTCCGGTCTCCC
DNA 2: TGGTGGCTACGACGGGATT
B19: ACUAACA (DNA:RNA)
RNA: B1 RNA with U26C, C29A, A30C
DNA 1: CAATCTGAATTCCGGTCTCCC
DNA 2: TGGTGGCTACGACGGGATT
B20: UACCUCG (DNA:RNA)
RNA: B2 RNA with G25U, G26A, G27C, U28C, U30C
DNA 1: CAATCTGAATTCCGGTCTCCC
DNA 2: TGGTGGCTACGACGGGATT
B21: CUGGCCC (DNA:RNA)
RNA: B1 RNA with A25C, U27G, A28G, A30C, A31C
DNA 1: CAATCTGAATTCCGGTCTCCC
DNA 2: TGGTGGCTACGACGGGATT
B22: AUUGAUC (DNA:RNA)
RNA: B1 RNA with A28G, C29A, A30U, A31C
DNA 1: CAATCTGAATTCCGGTCTCCC
DNA 2: TGGTGGCTACGACGGGATT
B23: CCUGGUA (DNA:RNA)
RNA: B1 RNA with A25C, U26C, A28G, C29G, A30U
DNA 1: CAATCTGAATTCCGGTCTCCC
DNA 2: TGGTGGCTACGACGGGATT
B24: AGGGGGC (DNA:RNA)
RNA: B2 RNA with G25A, U28G, U29G, U30G, G31C
DNA 1: CAATCTGAATTCCGGTCTCCC
DNA 2: TGGTGGCTACGACGGGATT
B25: AGAUUCC (DNA:RNA)
RNA: B2 RNA with G25A, G27A, U30C, G31C
DNA 1: CAATCTGAATTCCGGTCTCCC
DNA 2: TGGTGGCTACGACGGGATT
B26: GUACCGC (DNA:RNA)
RNA: B1 RNA with A25G, U27A, A28C, A30G, A31C
DNA 1: CAATCTGAATTCCGGTCTCCC
DNA 2: TGGTGGCTACGACGGGATT
B27: CUUCGCG (DNA:RNA)
RNA: B1 RNA with A25C, A28C, C29G, A30C, A31G
DNA 1: CAATCTGAATTCCGGTCTCCC
DNA 2: TGGTGGCTACGACGGGATT
B28: GGGCCCG (DNA:RNA)
RNA: B2 RNA with U28C, U29C, U30C
DNA 1: CAATCTGAATTCCGGTCTCCC
DNA 2: TGGTGGCTACGACGGGATT
B29: GCCAUUC (DNA:RNA)
RNA: B2 RNA with G26C, G27C, U28A, G31C
DNA 1: CAATCTGAATTCCGGTCTCCC
DNA 2: TGGTGGCTACGACGGGATT
B30: AAGUAGU (DNA:RNA)
RNA: B2 RNA with G25A, G26A, U29A, U30G, G31U
DNA 1: CAATCTGAATTCCGGTCTCCC
DNA 2: TGGTGGCTACGACGGGATT
B31: GGGUGCC (DNA:RNA)
RNA: B2 RNA with U29G, U30C, G31C
DNA 1: CAATCTGAATTCCGGTCTCCC
DNA 2: TGGTGGCTACGACGGGATT

Each binder was assayed against T1, RBFOX1 RRM (Homo sapiens, UniProt Q9NWB1 109-208) (assay: EMSA; HiTS-Eq, 1 nM pool, 10 min; buffer printed only for the single-RNA assays: 10 mM Tris pH 7.5, 150 mM NaCl, 3.4 mM EDTA, 0.001% NP-40, 30 C). Conditions: tags: His6 N-terminal (pET28a); label: 5' 32P.
T1 sequence: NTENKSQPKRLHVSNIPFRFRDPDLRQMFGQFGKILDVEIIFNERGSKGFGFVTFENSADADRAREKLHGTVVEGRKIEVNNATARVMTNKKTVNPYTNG
Method in brief: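 A pool of RNA with 7 randomized nucleotides, 5′-radiolabelled and with DNA-annealed flanks, was equilibrated at 1 nM for 10 min in 50 µL with purified RbFox RRM, wild type or mutant, across increasing protein concentrations. Free RNA was separated by 8% native PAGE, excised, reverse-transcribed, barcoded by PCR and sequenced. Relative association constants were obtained from read-count changes of each RNA species versus the control reaction and normalised to the cognate motif.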

Point of comparison: B16, binding signal 0.0037 KA relative to UGCAUGU. Against it:
- B1 — lower, 0.000272 KA relative to UGCAUGU
- B2 — higher, 0.0349 KA relative to UGCAUGU
- B3 — higher, 0.01 KA relative to UGCAUGU
- B4 — higher, 0.00443 KA relative to UGCAUGU
- B5 — higher, 0.00671 KA relative to UGCAUGU
- B6 — higher, 0.0105 KA relative to UGCAUGU
- B7 — lower, 0.00266 KA relative to UGCAUGU
- B8 — higher, 0.00512 KA relative to UGCAUGU
- B9 — higher, 0.00685 KA relative to UGCAUGU
- B10 — higher, 0.0103 KA relative to UGCAUGU
- B11 — higher, 0.00453 KA relative to UGCAUGU
- B12 — higher, 0.0149 KA relative to UGCAUGU
- B13 — lower, 0.00317 KA relative to UGCAUGU
- B14 — higher, 0.0143 KA relative to UGCAUGU
- B15 — higher, 0.0234 KA relative to UGCAUGU
- B17 — higher, 0.00513 KA relative to UGCAUGU
- B18 — higher, 0.0117 KA relative to UGCAUGU
- B19 — lower, 0.00218 KA relative to UGCAUGU
- B20 — higher, 0.0107 KA relative to UGCAUGU
- B21 — higher, 0.0191 KA relative to UGCAUGU
- B22 — higher, 0.00926 KA relative to UGCAUGU
- B23 — higher, 0.0127 KA relative to UGCAUGU
- B24 — higher, 0.0172 KA relative to UGCAUGU
- B25 — higher, 0.00766 KA relative to UGCAUGU
- B26 — higher, 0.0107 KA relative to UGCAUGU
- B27 — higher, 0.0159 KA relative to UGCAUGU
- B28 — higher, 0.0157 KA relative to UGCAUGU
- B29 — higher, 0.00699 KA relative to UGCAUGU
- B30 — lower, 0.00352 KA relative to UGCAUGU
- B31 — higher, 0.0228 KA relative to UGCAUGU
